{
  "source": "paper PMC12136788",
  "binders": {"B1": {"name": "chr5:146772872:146772873:-_ENSG00000113657_ENST00000343218|hu_mus|FALSE|FALSE (ssRNA)", "RNA": "GGGAGUUCUACAGUCCGACGAUCCAUUUGUUCAUCUGUGUGUGGUCUUCACAGCUGGGAAUAGAAGACUAGAAAGCCACAGGAGAAAGAGGCCUGAGCAAGCAACUGGCAUCACAGGUGGAAGAAAUGGCUGGAUUCUGUCAUCAACAGAGGAUUGAGCAUCA"}, "B2": {"name": "chr18:52893488:52893489:-_ENSG00000196628_ENST00000354452|hu_hu|hu_hu_hu_mus_True|18_98 (ssRNA)", "RNA": "GGGAGUUCUACAGUCCGACGAUCUAUUUAGACCAUUUCAAUGGAUUUAUGGCAUUUACUCAGUGCUGAUAGGUGGAAAAACUACUUCAACAGGGAUUUUUUUUUUCCUUAAUACAUGCCAAGAAUUUGUGGCUGUCAAAACAGCAACAGAGGAUUGAGCAUCA"}, "B3": {"name": "chr16:10423590:10423591:+_ENSMUSG00000022503_ENSMUST00000023146|mus_mus|FALSE|FALSE (ssRNA)", "RNA": "GGGAGUUCUACAGUCCGACGAUCUGGGAGUCCUGUGACUCAGAGAGUUCCUAGUCCCUUGGAUUCCAGGAAGCAGGCCCUAAGGGAUAGGUUCAAGGAGACAUUUUUAUUUUCUGAUGAAUGGCACCUGGAUGCAGAGCGCCCCAACAGAGGAUUGAGCAUCA"}, "B4": {"name": "chr16:13835293:13835294:+_ENSMUSG00000022681_ENSMUST00000136618|mus_hu|FALSE|FALSE (ssRNA)", "RNA": "GGGAGUUCUACAGUCCGACGAUCAGAAAACAGUGUGUGAGCUGGAGAUGGGUGUUUUUUUAAAAACAUCAAGGUAGAUCUAAUAUGUUCAACAAAGUGGGGUGGCUCAGCCAGAGGCGAAGUGGAAAGAUUCUCUAGUAUUUGCAACAGAGGAUUGAGCAUCA"}, "B5": {"name": "chr11:100882373:100882374:+_ENSMUSG00000019302_ENSMUST00000044721|mus_mus|mus_mus_mus_hu_True|28_108 (ssRNA)", "RNA": "GGGAGUUCUACAGUCCGACGAUCUUCCUGGUUAGUGUUGAUUUCCUUCAGUUCAUUUUCAAUCUUCUCAAAAUUGGCCUCUAAGUCAAUCAUGUCCCGGGGGAAGGGCACCUCUGGGUUUUCACCGGUGUCCAUAAUCGGAAUCAACAGAGGAUUGAGCAUCA"}, "B6": {"name": "chr18:35732517:35732518:+_ENSMUSG00000037236_ENSMUST00000166793|mus_mus|FALSE|FALSE (ssRNA)", "RNA": "GGGAGUUCUACAGUCCGACGAUCUAUAGAGCACAGAUGGGGAUAACCCUUCGGUAAGAGUCCAUGGAAGUCUUCAAUAUUGCUACUUGGAGGAGCGCCCCUCUUUUUCUCAAAGAGAGAUCUCUCUUGUAAGGGGCCAGGACCCAACAGAGGAUUGAGCAUCA"}, "B7": {"name": "chr2:9724522:9724523:-_ENSG00000134308_ENST00000238081|hu_mus|FALSE|FALSE (ssRNA)", "RNA": "GGGAGUUCUACAGUCCGACGAUCUUUUUUGGGACUACAGUCAAUGAUUAGCAAACACACAAUAUAGUGGUCCAACUCUCUAAAGAACAAUCACUGGACAAACCGGAUACCCUCUCCCAUGUGCACAACUCUGCAUGGAAAAGUCAACAGAGGAUUGAGCAUCA"}, "B8": {"name": "chr1:220276048:220276049:+_ENSG00000067704_ENST00000302637|hu_hu|hu_hu_hu_mus_True|58_98 (ssRNA)", "RNA": "GGGAGUUCUACAGUCCGACGAUCGCAAAUUGCCUGGUUGGCUGGAAUUGUCCAAGGCUGGGUGGUCCAAACUAAAAUACUAACAGGGGAUGAGGCAUCUGUAAGAGACUCCAACUUCGGAGGAGGUCUCAGGAGGGGGAAUCUCAACAGAGGAUUGAGCAUCA"}, "B9": {"name": "9210573_9210693_1089_3pUTR_ENSG00000182831_ENST00000327827|human|control|control (ssRNA)", "RNA": "GGGAGUUCUACAGUCCGACGAUCGUUCCACCAUUGUCCAAGUGGAGUGCCAUUUCUUCUGAUAUGAAAGUGUUCAAAUCGACAUCAUGGAGUCCAUUUCUCCUUCGACUAGCAUUCGAUCCACUGCUUACAUGUGUAGGAGAGCAACAGAGGAUUGAGCAUCA"}, "B10": {"name": "62926332_62928626_1961_CDS_ENSG00000061987_ENST00000546600|human|control|control (ssRNA)", "RNA": "GGGAGUUCUACAGUCCGACGAUCAACAAUUUCCUUAUCCAUUUGGUCUGAUGUUGACUGUAAAUCCUGCUGUUCUGUCGACUGUGUUGGUGAAGAACCUUCUUCAGUGGUGGUUUGACAUUCUGUUUCAAGCUCUCCUAGCUCCAACAGAGGAUUGAGCAUCA"}, "B11": {"name": "chr2:32086683:32086684:+_ENSMUSG00000039262_ENSMUST00000036691|mus_hu|motif|central (ssRNA)", "RNA": "GGGAGUUCUACAGUCCGACGAUCCAGAGGCUAGAGAUGGAAGGGAGCGGAGGGGCUGGCAAGAAACAUAUAAAAGUUCAGCGGUACACAUGGAGCUUGCGUUUUUGUUUUCUUUUCCUUUCCCCUUUGUAAAAACCUUGGCUACAACAGAGGAUUGAGCAUCA"}, "B12": {"name": "chr3:185641624:185641625:-_ENSG00000136527_ENST00000456380|hu_hu|FALSE|FALSE (ssRNA)", "RNA": "GGGAGUUCUACAGUCCGACGAUCGGCACGUUCUUUAGCUUCCUUGGCAUCAUCUACAUUUUCAAAAUAUACAAAGGCAAAUCCUCUUGAACGCCUAGACUGCUGGUCAUAUACAAUAGACACAUCGGCAAUGGGACCAUAUUUCAACAGAGGAUUGAGCAUCA"}, "B13": {"name": "chr19:8913615:8913616:-_ENSMUSG00000071658_ENSMUST00000096259|mus_hu|mus_mus_mus_hu_False|8_28 (ssRNA)", "RNA": "GGGAGUUCUACAGUCCGACGAUCAGGGUACCAAAACCUUCUGCCUGAAAUGGGUGCCCCACCCAGUAGGGAGUUGCAGCUGAAAGUAUCUGAUGCAGAAGCAGUGAAUGCAGAGAAGGAGGCCCCUGAUGCUCAGAAGGCCAGCAACAGAGGAUUGAGCAUCA"}, "B14": {"name": "chr7:75932113:75932114:+_ENSG00000106211_ENST00000248553|hu_hu|hu_hu_hu_mus_False|38_108 (ssRNA)", "RNA": "GGGAGUUCUACAGUCCGACGAUCCUGCGACCACUCCUCGGGCAACCGGGGCACCCCGAAAGCUUGAUCGAAGAGGCGGCUGUGUGCAGGGUACCAGCGGAAGGGGUGUUCCCAGCUCGGGCUCCGCAGCAGCGAGAAGGGCACCAACAGAGGAUUGAGCAUCA"}, "B15": {"name": "chr8:104447970:104447971:+_ENSG00000164934_ENST00000297579|hu_hu|hu_hu_hu_mus_False|88_108 (ssRNA)", "RNA": "GGGAGUUCUACAGUCCGACGAUCAUAUACCUCCCUGCUUCGGCUCUUGUCUACAGGAAAGAUUCUAAUAGACUUAUCAAAGCUGGCAGACACAAAUUCCUUCCCAGUGGGAGAGUAGUCCACAUCAAGUACUGCAGACACGUGCAACAGAGGAUUGAGCAUCA"}, "B16": {"name": "chr16:45382771:45382772:-_ENSMUSG00000022661_ENSMUST00000163230|mus_mus|mus_mus_mus_hu_True|1_8 (ssRNA)", "RNA": "GGGAGUUCUACAGUCCGACGAUCCUGGGUCAUGUUAUAAGACAAAUGGACAGGGAGGGCAUGCUUCUCAAAAAAUGUGAGCUAUUGUCUAAGACUAACAAUAUUUAUCUAGCUAUAAAAAUAAGUUUUAAAUGGACACAUUACCAACAGAGGAUUGAGCAUCA"}, "B17": {"name": "21540635_21540755_4770_CDS_ENSMUSG00000021819_ENSMUST00000022358|mouse|control|control (ssRNA)", "RNA": "GGGAGUUCUACAGUCCGACGAUCGUAGGGGUGCAGGCCAGGGGAGUGGCCAUGCCCCAGUCCUGGACCUGGAUAUAAACUGGACCCCACUGAGAUGACCGGAACCACUGUGGCUGCUGCUGUCACUGCUGCCGCAGCCACUGUCAACAGAGGAUUGAGCAUCA"}, "B18": {"name": "chr14:22612544:22612545:+_ENSMUSG00000021770_ENSMUST00000119430|mus_hu|FALSE|FALSE (ssRNA)", "RNA": "GGGAGUUCUACAGUCCGACGAUCAAGCCAGGCAUCUAAGAACAACCUAGGGGGAGAACGCAAAGUUACUCAUUUUCAACAACUAUUAUAUAUUUAAUCACAAAUUCAUUAGAAAGAUAGUAUUCAUCCAAUUAGUCUUUUCAUCAACAGAGGAUUGAGCAUCA"}, "B19": {"name": "chr6:72385097:72385098:-_ENSMUSG00000053907_ENSMUST00000059472|mus_mus|FALSE|FALSE (ssRNA)", "RNA": "GGGAGUUCUACAGUCCGACGAUCCUGAGAAGUGCCAUAAUGGAAAAUGGAGAUCGACAAUGGAUGAGAAACUCCAAUAGCAUAAGAGACCUGAACAAGAACCCUCCUGCACAGACCUCCUUUAACAAGGGAUUUUGCCACCCACAACAGAGGAUUGAGCAUCA"}, "B20": {"name": "chr18:61067831:61067832:-_ENSG00000119541_ENST00000238497|hu_hu|FALSE|FALSE (ssRNA)", "RNA": "GGGAGUUCUACAGUCCGACGAUCAGAAACAAGAUCAGAGGAAGAUAUUGAAAAAAAUGUUGAGUUGUUGGCUUCUGUUGCUACAGCUUUGGCUAAGUAGGACUUUCCUGUUCCAGGCGGCCCAAAUAAUAGGAUUCCCCUCCACAACAGAGGAUUGAGCAUCA"}, "B21": {"name": "chr14:20710596:20710597:-_ENSMUSG00000043004_ENSMUST00000160013|mus_mus|motif|central (ssRNA)", "RNA": "GGGAGUUCUACAGUCCGACGAUCAUCCUGUCGAUGUUGGCUUCCAUCUUCAGCUGUUCUACCAGCUUCCUGGCUUGUGCGGUGCUGGCGGUGUUGUUGCUGGCCAUUGGAGCGUUGGAUGGGGUCUUCAGAGACUCUGGUCAGCAACAGAGGAUUGAGCAUCA"}, "B22": {"name": "chr4:106721038:106721039:+_ENSMUSG00000061887_ENSMUST00000030367|mus_hu|FALSE|FALSE (ssRNA)", "RNA": "GGGAGUUCUACAGUCCGACGAUCUCCUUUUUUUUUUUUUUUAAGAAGAAAGCAUAGAGGUUGAUUGGGGUGGGGGGCUUGCUAGAAGCUUCCAUUUAAAAAAAUUUUCCCCCAAAAAACCCCCCUGAAAACAAAUAAAAAAAUCAACAGAGGAUUGAGCAUCA"}},
  "note": "The list shows a part of the results.",
  "data": [
    {"molecular_target": "T1, UNK ZnF1-3 (human, UniProt Q9C0B0 31-174)", "T1 sequence": "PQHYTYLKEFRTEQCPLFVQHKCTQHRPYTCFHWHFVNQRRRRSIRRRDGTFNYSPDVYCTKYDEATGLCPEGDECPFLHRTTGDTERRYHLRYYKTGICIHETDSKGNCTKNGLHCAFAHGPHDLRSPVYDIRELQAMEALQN", "experiment": "nsRBNS (natural sequence RNA bind-n-seq); RBNS binding buffer (assumed for nsRBNS): 25 mM Tris pH 7.5, 150 mM KCl, 3 mM MgCl2, 0.01% Triton X-100, 500 ug/ml BSA, 20 U/ml SUPERase-In, 4 C; UNK is unkempt and MSI1 is Musashi-1; names of the RNAs are library labels; protein concentration not given here; high values mean tight binding", "units": {"binding signal": "enrichment R"}, "values": [
      {"binder": "B1", "binding signal": 2.75},
      {"binder": "B2", "binding signal": 1.08},
      {"binder": "B3", "binding signal": 1.28},
      {"binder": "B4", "binding signal": 2.39},
      {"binder": "B5", "binding signal": 0.547},
      {"binder": "B6", "binding signal": 0.996},
      {"binder": "B7", "binding signal": 1.24},
      {"binder": "B8", "binding signal": 1.9},
      {"binder": "B9", "binding signal": 0.477},
      {"binder": "B10", "binding signal": 0.365},
      {"binder": "B11", "binding signal": 1.69},
      {"binder": "B12", "binding signal": 1.42},
      {"binder": "B13", "binding signal": 1.15},
      {"binder": "B14", "binding signal": 1.08},
      {"binder": "B15", "binding signal": 0.917},
      {"binder": "B16", "binding signal": 2.72},
      {"binder": "B17", "binding signal": 0.644},
      {"binder": "B18", "binding signal": 1.99},
      {"binder": "B19", "binding signal": 0.946},
      {"binder": "B20", "binding signal": 2.05},
      {"binder": "B21", "binding signal": 0.418},
      {"binder": "B22", "binding signal": 0.973}
    ]}
  ]
}
